According to the supplement of paper PMC10037445:
Over roughly 2,900 compounds, “IRF Lucia reporter activity, fold change vs agonist alone” has its median near 0.9; the highest 2% begin near 2.8. The list shows a part of the results.

Columns and labels:
RAW-Dual [1] = experiment: IRF Lucia reporter activity, fold change vs agonist alone; cytotoxicity flag (confluency mask): not cytotoxic; higher = enhanced IRF activity
Method in brief: (§1)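 Supernatant from RAW-Dual macrophages was read after 20 hours for IRF by QuantiLuc luminescence and for NF-κB by QuantiBlue absorbance at 620 nm. The cells (50,000 cells/well in DMEM, 384-well plates, 37 °C, 5% CO2) had received 50 nL of library stock by pin tool and, 1 h later, a PRR agonist. Reporter activity is expressed relative to agonist-alone wells as fold change, and wells were flagged cytotoxic if IncuCyte confluency was under 70% of agonist controls in both mask sets.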

RAW-Dual [2] = experiment: IRF Lucia reporter activity, fold change vs agonist alone; higher = enhanced IRF activity; conditions: cytotoxicity flag (confluency mask): not cytotoxic, agonist: MPLA (TLR4) […]
Method in brief: as §1

RAW-Dual [3] = experiment: IRF Lucia reporter activity, fold change vs agonist alone; cytotoxicity flag (confluency mask): cytotoxic (confluency <70% of control); higher = enhanced IRF activity
Method in brief: as §1

[4] = agonist: 3'3'-cGAMP (STING) 10 ug/mL
[5] = library stock concentration (final ~1000-fold dilution): 10 mM

Question: Which “IRF Lucia reporter activity” value (RAW-Dual [1]; [4]) does the source give for `CCC(Nc1ncnc2[nH]cnc12)c1oc2ccccc2c(=O)c1-c1cccc(F)c1` (stereo not drawn) (library stock concentration (final ~1000-fold dilution): 10 mM) here?
Answer: 0.805

Question: And the “IRF Lucia reporter activity” value (RAW-Dual [1]; agonist: LPS (TLR4) 0.1 ug/mL)?
Answer: 0.866

Question: Which results are given for `O=c1ccoc2cc(O)ccc12` (library stock concentration (final ~1000-fold dilution): 10 mM)?
Answer: IRF Lucia reporter activity (RAW-Dual [1]; [4]): 0.899; IRF Lucia reporter activity (RAW-Dual [1]; agonist: LPS (TLR4) 0.1 ug/mL): 0.164

Question: For `O=c1ccoc2cc(O)ccc12`, which “IRF Lucia reporter activity” value (RAW-Dual [2]; [5]) is on record?
Answer: 0.973

Question: What does the source list for `CNC(=NC#N)NCCSCc1nc[nH]c1C` (library stock concentration (final ~1000-fold dilution): 10 mM)?
Answer: IRF Lucia reporter activity (RAW-Dual [1]; [4]): 1.1; IRF Lucia reporter activity (RAW-Dual [1]; agonist: LPS (TLR4) 0.1 ug/mL): 0.927

Question: `CNC(=NC#N)NCCSCc1nc[nH]c1C` was tested. Which “IRF Lucia reporter activity” value (RAW-Dual [2]; [5]) did it give?
Answer: 0.78

Question: How did the “IRF Lucia reporter activity” value (RAW-Dual [1]; [4]) turn out when `CC(C)Cc1ccc([C@@H](C)C(=O)O)cc1` (library stock concentration (final ~1000-fold dilution): 10 mM) was run?
Answer: 0.953

Question: What about the “IRF Lucia reporter activity” value (RAW-Dual [1]; agonist: LPS (TLR4) 0.1 ug/mL) of the same compound?
Answer: 1.08

Question: Which results are given for `O=C1C[C@@H](c2ccc(O)c(O)c2)Oc2cc(O)cc(O)c21` (library stock concentration (final ~1000-fold dilution): 10 mM)?
Answer: IRF Lucia reporter activity (RAW-Dual [1]; [4]): 0.101; IRF Lucia reporter activity (RAW-Dual [1]; agonist: LPS (TLR4) 0.1 ug/mL): 1.01

Question: With `CS(=O)(=O)O.O=C(NC1CCN(CCCCC2(C(=O)NCC(F)(F)F)c3ccccc3-c3ccccc32)CC1)c1ccccc1-c1ccc(C(F)(F)F)cc1` (library stock concentration (final ~1000-fold dilution): 10 mM) as the compound, how does the “IRF Lucia reporter activity” value (RAW-Dual [3]; [4]) read?
Answer: 0.0237

Question: What about the “IRF Lucia reporter activity” value (RAW-Dual [3]; agonist: LPS (TLR4) 0.1 ug/mL) of the same compound?
Answer: 0.0947

Question: Which results are given for `O=C(/C=C/c1cncc(F)c1)c1c(-c2ccccc2)c2cc(Cl)ccc2[nH]c1=O` (library stock concentration (final ~1000-fold dilution): 10 mM)?
Answer: IRF Lucia reporter activity (RAW-Dual [3]; [4]): 0.00558; IRF Lucia reporter activity (RAW-Dual [3]; agonist: LPS (TLR4) 0.1 ug/mL): 0.0118

Question: For `CC1COCCN1c1cc(-c2ccnn2C)c2ccnc(-c3ccn[nH]3)c2n1.Cl` (stereo not drawn) (library stock concentration (final ~1000-fold dilution): 10 mM), which “IRF Lucia reporter activity” value (RAW-Dual [1]; [4]) is on record?
Answer: 0.164

Question: What about the “IRF Lucia reporter activity” value (RAW-Dual [1]; agonist: LPS (TLR4) 0.1 ug/mL) of the same compound?
Answer: 0.65

Question: How did the “IRF Lucia reporter activity” value (RAW-Dual [1]; [4]) turn out when `CCNC(=O)[C@]12CCC(C)(C)C[C@H]1[C@H]1C(=O)C=C3[C@@]4(C)C=C(C#N)C(=O)C(C)(C)[C@@H]4CC[C@@]3(C)[C@]1(C)CC2` (library stock concentration (final ~1000-fold dilution): 10 mM) was run?
Answer: 0.00792

Question: What about the “IRF Lucia reporter activity” value (RAW-Dual [1]; agonist: LPS (TLR4) 0.1 ug/mL) of the same compound?
Answer: 0.0127

Question: How did the “IRF Lucia reporter activity” value (RAW-Dual [1]; [4]) turn out when `COc1ccccc1Nc1nc(-c2sc(NC(C)=O)nc2C)cs1` (library stock concentration (final ~1000-fold dilution): 10 mM) was run?
Answer: 0.217

Question: And the “IRF Lucia reporter activity” value (RAW-Dual [1]; agonist: LPS (TLR4) 0.1 ug/mL)?
Answer: 0.684

Question: `COc1ccccc1Nc1nc(-c2sc(NC(C)=O)nc2C)cs1` was tested. Which “IRF Lucia reporter activity” value (RAW-Dual [2]; [5]) did it give?
Answer: 0.515

Question: For `CCCC1CC(C(=O)NC(C(C)Cl)C2OC(SC)C(OP(=O)(O)O)C(O)C2O)N(C)C1` (stereo not drawn) (library stock concentration (final ~1000-fold dilution): 10 mM water), which “IRF Lucia reporter activity” value (RAW-Dual [1]; [4]) is on record?
Answer: 1.23

Question: And the “IRF Lucia reporter activity” value (RAW-Dual [1]; agonist: LPS (TLR4) 0.1 ug/mL)?
Answer: 0.95

Question: Which “IRF Lucia reporter activity” value (RAW-Dual [2]; library stock concentration (final ~1000-fold dilution): 10 mM water) does the source give for `CCCC1CC(C(=O)NC(C(C)Cl)C2OC(SC)C(OP(=O)(O)O)C(O)C2O)N(C)C1` (stereo not drawn) here?
Answer: 1.42

Question: Which “IRF Lucia reporter activity” value (RAW-Dual [1]; [4]) does the source give for `C#Cc1cccc(Nc2ncnc3cc(OCCOC)c(OCCOC)cc23)c1` (library stock concentration (final ~1000-fold dilution): 10 mM) here?
Answer: 0.0457

Question: And the “IRF Lucia reporter activity” value (RAW-Dual [1]; agonist: LPS (TLR4) 0.1 ug/mL)?
Answer: 0.382

Question: Which results are given for `COc1ccc(Cn2ccc3ccc(C(=O)NO)cc32)cc1` (library stock concentration (final ~1000-fold dilution): 10 mM)?
Answer: IRF Lucia reporter activity (RAW-Dual [1]; [4]): 0.242; IRF Lucia reporter activity (RAW-Dual [1]; agonist: LPS (TLR4) 0.1 ug/mL): 0.899

Question: How did the “IRF Lucia reporter activity” value (RAW-Dual [2]; [5]) turn out when `COc1ccc(Cn2ccc3ccc(C(=O)NO)cc32)cc1` was run?
Answer: 1.03

Question: With `NC(=O)c1cn(Cc2c(F)cccc2F)nn1` as the compound, how does the “IRF Lucia reporter activity” value (RAW-Dual [2]; [5]) read?
Answer: 1.03

Question: Which “IRF Lucia reporter activity” value (RAW-Dual [1]; [4]) does the source give for `NC(=O)c1cn(Cc2c(F)cccc2F)nn1` (library stock concentration (final ~1000-fold dilution): 10 mM) here?
Answer: 0.925

Question: What about the “IRF Lucia reporter activity” value (RAW-Dual [1]; agonist: LPS (TLR4) 0.1 ug/mL) of the same compound?
Answer: 1.18

Question: Which results are given for `Cc1cc(O)c2c(c1)C(=O)c1cccc(O)c1C2=O` (library stock concentration (final ~1000-fold dilution): 10 mM)?
Answer: IRF Lucia reporter activity (RAW-Dual [1]; [4]): 0.928; IRF Lucia reporter activity (RAW-Dual [1]; agonist: LPS (TLR4) 0.1 ug/mL): 1.02

Question: With `Cc1cc(O)c2c(c1)C(=O)c1cccc(O)c1C2=O` as the compound, how does the “IRF Lucia reporter activity” value (RAW-Dual [2]; [5]) read?
Answer: 0.877

Question: `COc1cc2c(N3CCN(C(=O)Nc4ccc(OC(C)C)cc4)CC3)ncnc2cc1OCCCN1CCCCC1` (library stock concentration (final ~1000-fold dilution): 2 mM) was tested. Which “IRF Lucia reporter activity” value (RAW-Dual [1]; [4]) did it give?
Answer: 0.702

Question: What about the “IRF Lucia reporter activity” value (RAW-Dual [1]; agonist: LPS (TLR4) 0.1 ug/mL) of the same compound?
Answer: 0.934

Question: How did the “IRF Lucia reporter activity” value (RAW-Dual [2]; library stock concentration (final ~1000-fold dilution): 2 mM) turn out when `COc1cc2c(N3CCN(C(=O)Nc4ccc(OC(C)C)cc4)CC3)ncnc2cc1OCCCN1CCCCC1` was run?
Answer: 1.02

Question: Which “IRF Lucia reporter activity” value (RAW-Dual [2]; [5]) does the source give for `C=C1CCC2C(C)(CO)C(O)CCC2(C)C1C/C=C1\C=COC1=O` (stereo not drawn) here?
Answer: 1.17

Question: For `C=C1CCC2C(C)(CO)C(O)CCC2(C)C1C/C=C1\C=COC1=O` (stereo not drawn) (library stock concentration (final ~1000-fold dilution): 10 mM), which “IRF Lucia reporter activity” value (RAW-Dual [1]; [4]) is on record?
Answer: 1.18

Question: What about the “IRF Lucia reporter activity” value (RAW-Dual [1]; agonist: LPS (TLR4) 0.1 ug/mL) of the same compound?
Answer: 0.97
